Screen size: about 2,000 compounds; about 45 (2%) were called active.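 Rule for the calls: active = inhibition above the mean of all tested compounds plus 3 SD (cut at about 49% in these data); inactive = the rest.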 This is one part of the list.
What follows are molecules tested against Perilipin-5 (Homo sapiens) + 1-acylglycerol-3-phosphate O-acyltransferase ABHD5 (Homo sapiens) (UniProt Q00G26+Q8WTS1) (assay: ABHD5-PLIN5 interaction inhibitors, pilot screen, cell lysate, split luciferase complementation, luminescence, NIH validation set (AID 493035;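 note: 0% = DMSO only wells while the 100% control is not stated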)). Details: split G. princeps luciferase complementation, lysates, 4 h; at 7.9 µM, hits give high values.
Sequence of UniProt Q00G26 (Q00G26 whole entry, looked up): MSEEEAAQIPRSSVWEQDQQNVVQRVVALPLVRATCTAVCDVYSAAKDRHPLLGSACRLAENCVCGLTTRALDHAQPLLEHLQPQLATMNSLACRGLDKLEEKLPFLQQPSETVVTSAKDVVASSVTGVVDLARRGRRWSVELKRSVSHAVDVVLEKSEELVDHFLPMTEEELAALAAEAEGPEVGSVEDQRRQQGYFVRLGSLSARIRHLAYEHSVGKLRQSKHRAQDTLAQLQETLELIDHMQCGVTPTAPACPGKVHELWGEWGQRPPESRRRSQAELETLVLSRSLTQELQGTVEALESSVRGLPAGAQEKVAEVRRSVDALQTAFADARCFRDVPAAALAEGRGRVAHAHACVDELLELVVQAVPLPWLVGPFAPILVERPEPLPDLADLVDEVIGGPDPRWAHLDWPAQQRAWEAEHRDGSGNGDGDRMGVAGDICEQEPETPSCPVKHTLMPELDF
Sequence of UniProt Q00G26 (Q8WTS1 whole entry, looked up): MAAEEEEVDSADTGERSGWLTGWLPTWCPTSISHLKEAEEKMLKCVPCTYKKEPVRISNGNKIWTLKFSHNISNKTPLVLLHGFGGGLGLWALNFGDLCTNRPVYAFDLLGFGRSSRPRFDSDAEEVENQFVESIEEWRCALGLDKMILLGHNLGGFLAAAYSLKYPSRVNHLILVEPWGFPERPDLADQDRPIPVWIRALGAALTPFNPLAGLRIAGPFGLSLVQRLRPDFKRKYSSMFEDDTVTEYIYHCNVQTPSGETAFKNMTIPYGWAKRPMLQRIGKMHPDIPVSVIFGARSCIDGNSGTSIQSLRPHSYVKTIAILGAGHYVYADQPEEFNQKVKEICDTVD
In the case of `CCOc1ccc2ccccc2c1C(=O)N[C@@H]1C(=O)N2[C@@H]1SC(C)(C)[C@@H]2C(=O)O`, the inhibition is reported as inactive: -1.36%. `COc1cc2c(cc1OC)C1(CCCC1)CNC2c1cccc([N+](=O)[O-])c1` (centres undefined) was tested, and the inhibition was inactive: -1.68%. For `Cn1c(=O)c2c(nc(SCCN3CCCCC3)n2C)n(C)c1=O`, the inhibition was inactive: -9.84%. With `CCN(CC)CCNC(=O)c1cc(Cl)c(N)cc1OC` the inhibition was inactive: 3.79%. With `CCc1ccc(/C=C2\Oc3cc(OC(=O)N4CCOCC4)ccc3C2=O)cc1` the inhibition was inactive: 17.7%. For `[N-]=[N+]=NC1C[C@H](n2ccc(=O)[nH]c2=O)O[C@@H]1CO` (some centres undefined), the inhibition was inactive: -13.5%. `COc1ccc(S(=O)(=O)NCc2ccco2)c2ccccc12` was tested, and the inhibition was inactive: -2.66%. In the case of `CC1=NN(c2ccccc2)C(=O)C1`, the inhibition is reported as inactive: 20.4%. In the case of `COc1ccc(CCNC(=O)c2c(O)c3c([nH]c2=O)CCCC3)cc1`, the inhibition is reported as inactive: 1.95%. For `O=C(O)CCNC(=O)c1ccccc1`, the inhibition was inactive: -9.9%. In the case of `Cc1oc2c(O)c(O)ccc2c(=O)c1-c1ccccc1`, the inhibition is reported as inactive: -3.74%. In the case of `Cc1nc(N)sc1C(=O)N/N=C/c1ccco1`, the inhibition is reported as inactive: -0.45%. In the case of `Cc1ccc(S(=O)(=O)N[C@@H](Cc2ccccc2)C(=O)CCl)cc1`, the inhibition is reported as active: 84.4%. `COc1ccc(OCC(=O)N2c3ccc(C)cc3C3CN(C)CCC32)cc1` (centres undefined) was tested, and the inhibition was inactive: -2.28%. With `COc1cccc(CN2CCN(C(=O)c3ccc(-c4ccccc4)cc3)CC2)c1` the inhibition was inactive: -4.19%. `C1CCC(C(CC2CCCCN2)C2CCCCC2)CC1` (centres undefined) was tested, and the inhibition was inactive: -10%. With `Clc1ccc(OCCCN2CCCCC2)c(Br)c1` the inhibition was inactive: 7.02%. For `CC(=O)[C@@]1(O)CC[C@H]2[C@@H]3C[C@H](C)C4=CC(=O)C=C[C@]4(C)[C@@]3(F)[C@@H](O)C[C@@]21C`, the inhibition was inactive: -8.96%. `CCc1nc(N)nc(N)c1-c1ccc(Cl)cc1` was tested, and the inhibition was inactive: -11%. In the case of `O=C(NCCc1cccc(F)c1)[C@@H]1CSC2c3ccccc3C(=O)N21` (some centres undefined), the inhibition is reported as inactive: 11.8%. In the case of `CC(C)NCC(O)COc1ccc(CCOCC2CC2)cc1` (centres undefined), the inhibition is reported as inactive: -2.02%. `CCOc1cc(C)cc2oc(=O)cc(-c3ccccc3)c12` was tested, and the inhibition was inactive: -6.39%. With `OC[C@H]1O[C@@H](n2cnc3c(NC4CCCC4)ncnc32)[C@H](O)[C@@H]1O` the inhibition was inactive: -7.75%. For `C1COC(NC(C2CC2)C2CC2)=N1`, the inhibition was inactive: 12.9%. `NC(N)=N/N=C/c1ccc(OS(=O)(=O)c2ccccc2)cc1` was tested, and the inhibition was inactive: -1.57%. For `COC1CCN(C(=O)c2ccc(OC3CCN(Cc4ccccn4)CC3)cc2)CC1`, the inhibition was inactive: 0.85%. With `O=C1c2ccccc2C(=O)N1/N=C/c1ccc(Oc2ccc([N+](=O)[O-])cn2)cc1` the inhibition was inactive: -2.07%. For `COc1ccc(CCN=C(N)C(C)c2ccccc2)cc1OC` (centres undefined), the inhibition was inactive: -12.5%. In the case of `CCN(CC)CCCNC(=O)C1c2ccccc2Oc2ccccc21`, the inhibition is reported as inactive: -3.25%. In the case of `Cc1ccc(S(=O)(=O)Nc2ccc(S(=O)(=O)Nc3cc(C)nc(C)n3)cc2)cc1`, the inhibition is reported as inactive: 4.03%. With `CCC(CO)NCCNC(CC)CO` (centres undefined) the inhibition was inactive: -3.49%. With `CC(C)[C@H]1CN(C)CCN1Cc1cn(C)nc1-c1cccc(Cl)c1` the inhibition was inactive: -6.99%. `CC1CCN(CCOCCOc2ccccc2Br)CC1` was tested, and the inhibition was inactive: -1.54%. In the case of `CC(C)C(=O)Nc1c(O)c2ccccc2[nH]c1=O`, the inhibition is reported as inactive: -10.7%. In the case of `O=C(Nc1c(C(=O)O)[nH]c2ccccc12)NC1CCCCC1`, the inhibition is reported as inactive: 0.67%. In the case of `CC1(C)CC(=O)c2c(nc3ccccc3c2N)C1`, the inhibition is reported as inactive: -10.3%. `COC(=O)c1cc(C(=O)NCCC(C)C)cc([N+](=O)[O-])c1` was tested, and the inhibition was inactive: -16.4%. `COc1cccc(-n2cc(CNCc3c(C(=O)N(C)C)nc4ccc(Cl)cn34)cn2)c1` was tested, and the inhibition was inactive: 9.08%. With `COC(=O)c1ccc2c(c1)C(=O)/C(=C/c1ccc(O)cc1)O2` the inhibition was inactive: 6.49%. `CNS(=O)(=O)c1ccc(C)cc1` was tested, and the inhibition was inactive: -16.6%. `CN(C)C(=O)C12CCC(C)(c3nc4ccccc4nc31)C2(C)C` (centres undefined) was tested, and the inhibition was inactive: -12.6%. For `C/C(=N\NC(=O)C1(C)CC1(Br)Br)c1ccc([N+](=O)[O-])cc1` (centres undefined), the inhibition was inactive: -8.2%. `c1cnc(N2CCN(Cc3ccc4c(c3)OCO4)CC2)nc1` was tested, and the inhibition was inactive: 0.11%. `O[C@H]1COC2C1OC[C@@H]2O` (some centres undefined) was tested, and the inhibition was inactive: -7.45%. With `CCc1cccc2c1NC1(CCCC1)CC2C` (centres undefined) the inhibition was inactive: -7.15%. For `O=C(COc1ccc2ccc(=O)oc2c1)c1ccccc1`, the inhibition was inactive: -3.28%. `COc1ccc(OCc2cccc(C(=O)NN)c2)cc1` was tested, and the inhibition was inactive: 1.06%. In the case of `C/C(=N\NC(=O)c1ccccc1[N+](=O)[O-])c1ccc(Br)s1`, the inhibition is reported as inactive: -7.54%. `NC(N)=NC(N)=NCCc1ccccc1` was tested, and the inhibition was inactive: -11.9%. In the case of `CC(NC(=O)c1cccnc1)C(=O)O` (centres undefined), the inhibition is reported as inactive: -15.1%. For `CC(C)OC(=O)CC1C(=O)NCCN1C(=S)NC(=O)c1cccs1` (centres undefined), the inhibition was inactive: -6.51%. In the case of `C(=C\c1ccccc1)/CN1CCN(C(c2ccccc2)c2ccccc2)CC1`, the inhibition is reported as inactive: 2.11%. `Cc1ccc(OCCCCn2ccnc2C)c(C)c1` was tested, and the inhibition was inactive: -2.15%. `CCOC(=O)C1C(=O)OC2(CCOC(C)(C)C2)C1C(=O)OCC` (centres undefined) was tested, and the inhibition was inactive: -6.14%. `CCOC(=O)C(NC(=O)CCC(=O)Nc1ccc(S(N)(=O)=O)cc1)C(O)c1ccccc1` (centres undefined) was tested, and the inhibition was inactive: -0.83%. In the case of `CC(=O)NC1C(OCCOc2ccc(Cl)cc2Cl)OC(COC(C)=O)C(OC(C)=O)C1OC(C)=O` (centres undefined), the inhibition is reported as inactive: -5.93%. With `Cn1c(=O)c2c(ncn2Cc2ccccc2)n(C)c1=O` the inhibition was inactive: -12.1%. For `C=CCc1cc(Cl)ccc1OCCOCCN(C)C`, the inhibition was inactive: -6.55%. With `O=c1c(-c2ccc3c(c2)OCCO3)coc2cc(OC3OC(CO)C(O)C(O)C3O)ccc12` (centres undefined) the inhibition was inactive: -6.25%. `Cc1cccc(N2CCN(C(=S)c3ccccc3)CC2)c1` was tested, and the inhibition was inactive: -7.24%. With `O=c1ccc2c(o1)/C(=C/C=C(Cl)Cl)CCC2` the inhibition was inactive: 2.59%. With `Nc1nc2ccc(OC(F)(F)F)cc2s1` the inhibition was inactive: -0.16%. For `CC(C)CN1CCN(Cc2ccc(C#CC(C)(C)O)cc2)CC1CCO` (centres undefined), the inhibition was inactive: 1.45%. `COc1ccc2c(c1)c(CC(=O)O)c(C)n2C(=O)c1ccc(Cl)cc1` was tested, and the inhibition was inactive: -6.43%.

From PubChem BioAssay AID493035 (The Scripps Research Institute Molecular Screening Center, 2011)
